Measurements reported in the BET-seq Pho4 binding data (Le et al. 2018).
Some of the results follow. These are noisy estimates, calculated here from bound and input reads.

Target: T1, Pho4 (S. cerevisiae) (UniProt P07270)
T1 sequence: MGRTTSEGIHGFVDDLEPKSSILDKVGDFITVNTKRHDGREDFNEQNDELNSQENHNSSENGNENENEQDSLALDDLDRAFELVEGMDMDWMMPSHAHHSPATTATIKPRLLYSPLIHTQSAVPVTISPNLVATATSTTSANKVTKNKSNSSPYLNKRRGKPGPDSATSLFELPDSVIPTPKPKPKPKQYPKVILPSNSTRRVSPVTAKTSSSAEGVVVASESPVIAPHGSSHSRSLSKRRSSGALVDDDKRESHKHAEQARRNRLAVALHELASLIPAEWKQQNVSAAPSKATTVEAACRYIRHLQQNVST
Assay: relative binding free energy (BET-seq); higher = weaker binding
Details: reference: library average

Sequence | relative binding free energy
TTTTCCACGTGGAGTG | -0.04 kcal/mol
TAAGTCACGTGGATGG | 0 kcal/mol
ATAAACACGTGGGGGA | -0.09 kcal/mol
GGGCGCACGTGGAGTG | -0.07 kcal/mol
TTTGCCACGTGTAAAT | 0.14 kcal/mol
CGTTGCACGTGAGTAT | 0.28 kcal/mol
GTAGTCACGTGGTTTA | 0.11 kcal/mol
GGGTACACGTGCGCTG | -0.01 kcal/mol
CGTGACACGTGTTGGC | 0.08 kcal/mol
GATTGCACGTGTGATT | 0.01 kcal/mol
TTGGACACGTGATTTT | 0.12 kcal/mol
TAAATCACGTGGTGCG | 0.22 kcal/mol
TTATGCACGTGGGGAC | -0.2 kcal/mol
GGCATCACGTGAGGGA | 0.46 kcal/mol
GGGGTCACGTGGTTCC | 0.21 kcal/mol
CCTGGCACGTGTATGG | -0.13 kcal/mol
TAGCGCACGTGTTGTA | -0.18 kcal/mol
CTGAGCACGTGGTTTA | -0.06 kcal/mol
GGGGCCACGTGGCGGA | -0.22 kcal/mol
TGGACCACGTGAGGGT | 0.14 kcal/mol
GAGTGCACGTGGTGCA | -0.09 kcal/mol
AATGTCACGTGGAGTG | 0.02 kcal/mol
CGACTCACGTGTTGGG | 0.21 kcal/mol
AGTGACACGTGTCGTA | 0.02 kcal/mol
AAGATCACGTGTGGTT | 0.26 kcal/mol

Sequence | relative binding free energy
TCAGGCACGTGGTGTT | -0.17 kcal/mol
TGTTGCACGTGAGGGG | 0.28 kcal/mol
GGTATCACGTGGGCGA | -0.03 kcal/mol
GTTTTCACGTGGGACA | 0.19 kcal/mol
GGCGTCACGTGGCGTG | 0.04 kcal/mol
TAATCCACGTGGTGTG | -0.04 kcal/mol
AGTTACACGTGTATTT | 0.13 kcal/mol
TTTTTCACGTGTCAGA | 0.37 kcal/mol
CGGGTCACGTGTAGCT | 0.35 kcal/mol
GGTAGCACGTGCATAG | -0.12 kcal/mol
TGCTGCACGTGGGAGT | -0.15 kcal/mol
AGGCGCACGTGTTGTG | -0.05 kcal/mol
GTTGACACGTGACTGT | 0.19 kcal/mol
TATTACACGTGATTAG | 0.17 kcal/mol
CGTTGCACGTGGGTTG | -0.19 kcal/mol
ATCTGCACGTGTGTGG | 0 kcal/mol
GTGGGCACGTGGTAAA | -0.02 kcal/mol
GTTAACACGTGGATTG | -0.07 kcal/mol
ATGAGCACGTGGGATG | -0.2 kcal/mol
TTATTCACGTGAATCG | 0.49 kcal/mol
AATTTCACGTGGACGT | 0.33 kcal/mol
TTTCCCACGTGGGTTT | -0.23 kcal/mol
CTCGGCACGTGGGGGT | -0.23 kcal/mol
ATCGTCACGTGTTAAG | 0.14 kcal/mol
TGCGGCACGTGAGGTC | 0.18 kcal/mol

Sequence | relative binding free energy
ATCGTCACGTGGCTTG | 0.04 kcal/mol
CAAGGCACGTGAGTGG | 0.2 kcal/mol
TGGTGCACGTGGAGTG | -0.11 kcal/mol
TGGATCACGTGATGGA | 0.43 kcal/mol
TATGGCACGTGGGGCT | -0.25 kcal/mol
AGAGGCACGTGATAGT | 0.08 kcal/mol
AGTCTCACGTGATGTA | 0.16 kcal/mol
TATTCCACGTGGAGTG | 0.07 kcal/mol
TGACCCACGTGTGGGG | -0.01 kcal/mol
ATGCGCACGTGTTTAT | 0 kcal/mol
CCGGGCACGTGAGTGG | 0.05 kcal/mol
TAGGACACGTGGGCGA | -0.17 kcal/mol
TTGGCCACGTGTGCAG | -0.09 kcal/mol
ATTATCACGTGTGATA | 0.17 kcal/mol
GAGGGCACGTGGAATG | -0.03 kcal/mol
AGGTACACGTGGCGGT | 0 kcal/mol
GGATACACGTGGGATA | 0.16 kcal/mol
TTTTTCACGTGTCCGG | 0.33 kcal/mol
TGTGCCACGTGGATGG | -0.05 kcal/mol
GGGGTCACGTGTATTT | 0.21 kcal/mol
CGGGGCACGTGCGAGT | -0.29 kcal/mol
GAGGTCACGTGCGATT | 0.22 kcal/mol
GTTATCACGTGATGAG | 0.31 kcal/mol
GCGGTCACGTGAGTTT | 0.36 kcal/mol
ACGGGCACGTGGTGCT | -0.27 kcal/mol

Sequence | relative binding free energy
TTAAGCACGTGAAAAG | 0.29 kcal/mol
TGGATCACGTGGCGAT | 0.09 kcal/mol
AATTTCACGTGTAGCT | 0.27 kcal/mol
AGAGCCACGTGTGGTT | -0.02 kcal/mol
GATGGCACGTGAATTA | 0.24 kcal/mol
TAACTCACGTGGCGTG | 0.22 kcal/mol
TTCGACACGTGAGTGG | 0.33 kcal/mol
GGTTGCACGTGAAGAT | 0.34 kcal/mol
TACAACACGTGTGTGT | 0.03 kcal/mol
GGTCGCACGTGGAGGA | -0.04 kcal/mol
GATAGCACGTGGTGTT | -0.02 kcal/mol
TTTGTCACGTGAAGGA | 0.33 kcal/mol
GCCGTCACGTGGTAGT | 0.08 kcal/mol
AGGTTCACGTGGGTGG | 0.21 kcal/mol
TGTTCCACGTGTGGTT | 0.14 kcal/mol
CTAGACACGTGTGTGT | -0.01 kcal/mol
TATTACACGTGTGACG | 0.14 kcal/mol
TATGTCACGTGTTAGT | 0.12 kcal/mol
TGATGCACGTGTCGGA | 0.11 kcal/mol
AGGATCACGTGTGATA | 0.19 kcal/mol
GGTTACACGTGTTTAA | 0.1 kcal/mol
TGTGACACGTGTCAGA | 0.17 kcal/mol
TGGATCACGTGGCTGT | 0.12 kcal/mol
ATTGGCACGTGGAATT | -0.03 kcal/mol
GGTGACACGTGAGTTG | 0.3 kcal/mol

Sequence | relative binding free energy
GGAGTCACGTGACTGT | 0.38 kcal/mol
TGGTTCACGTGAGTCC | 0.3 kcal/mol
GTATTCACGTGGGAGT | 0.14 kcal/mol
CTGGGCACGTGTGGGC | -0.18 kcal/mol
GTATTCACGTGTTGAT | 0.25 kcal/mol
AGGGGCACGTGGAACG | -0.19 kcal/mol
CGGTTCACGTGTTCAT | 0.23 kcal/mol
GTCTACACGTGTTATG | 0.2 kcal/mol
GGGTTCACGTGGGCTG | 0.16 kcal/mol
CAAAGCACGTGTTTGA | 0.14 kcal/mol
TTAATCACGTGAACGG | 0.49 kcal/mol
AGGGACACGTGGGTGG | -0.16 kcal/mol
TTTAGCACGTGGTGTA | -0.23 kcal/mol
AGAGGCACGTGGGGAT | -0.24 kcal/mol
GGGGGCACGTGATTCG | -0.07 kcal/mol
GGTATCACGTGGGTGC | 0.06 kcal/mol
GGGCTCACGTGTACGG | 0.29 kcal/mol
TATAACACGTGAGAGG | 0.34 kcal/mol
GTCGCCACGTGTTGGG | -0.11 kcal/mol
ACAGTCACGTGTGGAA | 0.31 kcal/mol
TATAGCACGTGATTTA | 0.19 kcal/mol
GGTAACACGTGTGTAA | 0.12 kcal/mol
GGAATCACGTGTGGGA | 0.14 kcal/mol
AAGGGCACGTGGGTAC | -0.26 kcal/mol
AGTAACACGTGAGAGT | 0.19 kcal/mol

Sequence | relative binding free energy
CTTGGCACGTGGAAGA | -0.03 kcal/mol
TGGGCCACGTGCGTGT | -0.27 kcal/mol
TATAACACGTGTGTAG | -0.13 kcal/mol
AGTCTCACGTGGTTTA | 0.17 kcal/mol
TTCGACACGTGGTGGC | 0.04 kcal/mol
TCTTCCACGTGGGGTA | 0.02 kcal/mol
GTTGCCACGTGGTTAT | -0.29 kcal/mol
GGTGTCACGTGTCTTG | 0.15 kcal/mol
ATTGGCACGTGCAGAG | -0.23 kcal/mol
AGCGTCACGTGGCAGT | 0.06 kcal/mol
CGTAGCACGTGGTGTG | -0.18 kcal/mol
TATCTCACGTGTGGGG | 0.22 kcal/mol
TACAACACGTGTTGTT | -0.03 kcal/mol
TTATGCACGTGGACGT | -0.02 kcal/mol
TAGTGCACGTGTTGCT | 0.12 kcal/mol
CCGGGCACGTGGGAGG | -0.12 kcal/mol
TTTTTCACGTGTTTGC | 0.27 kcal/mol
AACGGCACGTGATGTG | 0.12 kcal/mol
TCCTGCACGTGGGTGG | -0.28 kcal/mol
CGTTTCACGTGGGAGG | 0.27 kcal/mol
GAGTGCACGTGGTGAT | 0.14 kcal/mol
